The list shows a part of the results.

The subject of this test is PfSIP2 AP2 domain 1 (GST-tagged). Briefly: gcPBM binding intensity (ln(normalized median fluorescence intensity)); higher = stronger DNA binding. A digest of the protocol: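 Binding intensity values are the highest Masliner-normalised natural-log median intensity among replicate spots of either probe orientation. The binding step lasted 1 h in 1× PBS with 1% milk, 0.2 mg/ml BSA, 0.5% salmon testes DNA and 0.03% Triton X-100, using GST-tagged P. falciparum DNA-binding domains expressed in E. coli on an Agilent 4 × 180k array of primer-extended double-stranded 36-bp intergenic genomic probes plus negative controls. Alexa488 anti-GST antibody and a 488 nm scan detected bound protein.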
In the case of “TTATATTAGCCGATGGTGCATATATTTATAGGAAAA [GTGCAC_site9518]”, the “gcPBM binding intensity (ln)” value stood at 10.1.

Turning to “ATAAATCAAATGCACACACACAAAAAAAAAAAAAAA [CACACA_site6221]”, the “gcPBM binding intensity (ln)” value came to 7.46.

Consider “TACAAAAATATATAAACACACAAATATAATATATAT [CACACA_site2942]”, for which the “gcPBM binding intensity (ln)” value is 7.09.

Consider “TAATAAATGACAAATTAACACACATATATTATATAT [CACACA_site9294]”, for which the “gcPBM binding intensity (ln)” value was 6.9. As for “CGCTCTCTTTAATATTGTACATATATATTATATATA [XGTACX_site7017]”, the “gcPBM binding intensity (ln)” value came out at 7.31. Regarding “TATATATAATATTTTTCACACACCATTTCCTTAAAC [CACACA_site1341]”, the “gcPBM binding intensity (ln)” value worked out at 7.08. Consider “TTTTTTTTTTTTTTTTGTACATAATAAATGTTCTTA [XGTACX_site6754]”, for which the “gcPBM binding intensity (ln)” value was found to be 6.95. The figure for “TGTATCTATAATAAAACACACATTTTTAATGTGCTC [CACACA_site6788]” is 6.78; for “AATATATGTATATCCACACACATATATATATATATA [CACACA_site1633]” it is 9.32; for “TATTTTGTATTCATTTGTCACATATAATAGATAGGA [TGCATGCA_negctrl_site9]” it is 7.14. Regarding “ATAGATATAACATATGCATGTAAAATATAACCACTC [TGCATGCA_site60]”, the “gcPBM binding intensity (ln)” value stood at 7.22. In the case of “TGTGCGGAAATAAGTGCACACATAGATATATGTATT [CACACA_site9227]” it was 10.8; in that of AATAAATAGAAAGAGGTGCTACATTATATTATTTAT, 8. For “TTATACGAAGTACGTACACACACTTATATGTTACTA [CACACA_site4019]”, the “gcPBM binding intensity (ln)” value is 7.37. Regarding “ATATATTATATGTACACACACATATAAGGGATTATA [CACACA_site5]”, the “gcPBM binding intensity (ln)” value was found to be 7.27. In the case of “TATAAATATATATATACACACACATACACAAAAAAA [CACACA_site9191]” it was 7.33; in that of “AAAAATATGAAGACACAATATAGAAATAAAAATATA [XGTACX_negctrl_site244]”, 6.82; in that of “TATTACTTGATATATACACACATATAACATAAATGC [CACACA_site7783]”, 6.99. “TAGAATAAACCAAGAAGTACTGTTTAATGAAAAGTA [XGTACX_site5712]”: the “gcPBM binding intensity (ln)” value is 6.92. In the case of “ATACCTAAAAAATATACACACATATTTATAAATATA [CACACA_site7260]” it was 7.05; in that of “AAAATAACATAAAAGAGTACTAAACCAAGATCAAAT [XGTACX_site7973]”, 7.13.

Turning to “TATATTTATATTCTTACATTTTTTATGTTTTTTTTT [CACACA_negctrl_site1017]”, the “gcPBM binding intensity (ln)” value was 6.76. Regarding “TAAACAGACATATAAACACACATATAAACCGACATA [CACACA_site2478]”, the “gcPBM binding intensity (ln)” value is 6.88. Take “GTCATATTATTCTTTTCACACACGCGTTAATAATAA [CACACA_site9302]”: the “gcPBM binding intensity (ln)” value stood at 7.96. The figure for “TATTATAATATGTAGCGTACATTTTTTCTTTCTTTT [XGTACX_site7831]” is 6.68. Turning to “AAGGTTATATAAAAAAGTACGCATAAGATGTTGTTC [XGTACX_site807]”, the “gcPBM binding intensity (ln)” value came out at 7.18. For “TACTGTATTATAATTATGATTGACGAAATTAAAAAT [GTGCAC_negctrl_site358]”, the “gcPBM binding intensity (ln)” value was 6.91. In the case of “ATTAGAAAAAAGATAGCACACACGGCCCAATATATA [CACACA_site2417]”, the “gcPBM binding intensity (ln)” value turned out to be 6.7. For the sequence “TGAAATTTATAATAGTGTACAAAGAAAAAAAAAAAA [XGTACX_site4965]”, the “gcPBM binding intensity (ln)” value was found to be 7.03. In the case of “TTTATGGATGTGTATGCATGCCTAAATAAATATATG [TGCATGCA_site916]” it was 7.1; in that of “ACGACATATGGATGATGTACTATCTTTATTATACAT [XGTACX_site6857]”, 6.89. The figure for “TCTCAAAAAAAAAAAAAAAAAAAAAAATTAAAAAAT [CACACA_negctrl_site1120]” is 6.77; for “TAAATAATGTAAAAAACATCATCAAAATGTTAATTA [CACACA_negctrl_site1768]” it is 6.62. For the sequence “CAATATAAAATAAAATGTACTTGTAGTAAAGGGATA [XGTACX_site1452]”, the “gcPBM binding intensity (ln)” value was 7.47. In the case of “ATAAAGGTTTTCCAAGCATGCCACATAGTGACATAC [TGCATGCA_site193]” it was 6.82; in that of “GATGAGGACAAACACACACACATAAGTTGATACATA [CACACA_site3424]”, 7.27; in that of “AGATAGATACATACACGTACATATATATATACACAT [XGTACX_site4755]”, 7.47.

For “GGTATAAAGAAATTTTGTACATATTTCTCCCTTTAA [XGTACX_site1874]”, the “gcPBM binding intensity (ln)” value came out at 7. The figure for “TAATATATAAGAAACAAAAAAAAATAAAAATATATA [TGCATGCA_negctrl_site153]” is 6.81. In the case of “TAAAATAATTCGTAACGTACATATGTAATATAATAT [XGTACX_site6126]” it was 7.33; in that of “CGCATACACGGACACACACACACATATATATATATA [CACACA_site4520]”, 9.28; in that of “AAAAAAAAAAAACACACACACACACTAATATATAAA [CACACA_site8302]”, 7.12.

As for “TAAATATATATCATCACACACACATACATAAATATA [CACACA_site183]”, the “gcPBM binding intensity (ln)” value came to 7.09. In the case of “AGCTCTATATTTTACACATGCGATTTGGATATATAT [TGCATGCA_site105]”, the “gcPBM binding intensity (ln)” value amounted to 7.11. Consider “CCTTTATATTATAAAAGTACATAATATTTTATAAGT [XGTACX_site1629]”, for which the “gcPBM binding intensity (ln)” value was 7.08. “ATATTACAACGTAACGAATATTTCATAAATTCTTAA [CACACA_negctrl_site770]”: the “gcPBM binding intensity (ln)” value is 6.61. In the case of “ATTTCTCAATCGTAATGTACAAAAAAAAGGAAAAAA [XGTACX_site1193]” it was 7.09; in that of “TTATATAGATGGAATAGTACAGTATATATATATATA [XGTACX_site8755]”, 9.2. Turning to “ATATTATTAATATATTGTACTTTTTTTTTTTTATTT [XGTACX_site496]”, the “gcPBM binding intensity (ln)” value is 6.96. The figure for “ATATGTATTTAATTCACACAAAAATATGTTCATGAA [CACACA_site5223]” is 7.13; for “CACATTATGTATCATACACACAAATAAATATATAAT [CACACA_site4505]” it is 7.12. In the case of TGAAAATAATTATAGGTGCATAAACATACGGATCTT it was 9.89; in that of “TTTTTTTTGTATTTTTCACACACTCTCTATCTCTCT [CACACA_site8655]”, 6.85. The figure for “TATAAAAATAATATTACACACATGTAAAATGCCCGT [CACACA_site7522]” is 6.83; for “ATATATTAATAATAAATTAAAAGGAGTAACATTTTC [CACACA_negctrl_site320]” it is 6.96. Consider “AATTTAATTATGGTAACACACAATAAAAAAAAATCT [CACACA_site568]”, for which the “gcPBM binding intensity (ln)” value came to 6.94. Turning to “TTTTTTTTTTTCTTTGCACACAGATAACTTGAAATT [CACACA_site2184]”, the “gcPBM binding intensity (ln)” value was found to be 7.2. In the case of “ATATTTTATTTTCCATGTACACAAAAAAAAAAAAAA [XGTACX_site8327]” it was 7.53; in that of “AAGAAAATAAAGGATATGAAAAATAAAAAAAAGGAG [TGCATGCA_negctrl_site265]”, 8.02.

On to “AGGTTAAAAATAAATACACACATTTTATGGGTGTAT [CACACA_site4702]”, for which the “gcPBM binding intensity (ln)” value came out at 6.76.

For the sequence “TTCTCACTTTTAAATTTTATTCAAAAATAAGGAAAG [XGTACX_negctrl_site444]”, the “gcPBM binding intensity (ln)” value was found to be 7.22. The figure for “GAGAGTAAAACAAATATACACACCATAAAGTTATAA [CACACA_site1686]” is 6.87; for “ATATATATATATAAATGTACATATGTATAATTCATA [XGTACX_site6679]” it is 8.9. The figure for “ATTTCGTTCTTTTATGCACACTCAACATATAAATTA [CACACA_site8322]” is 8.1; for “TATTTTTCCATATGCACACACACCGTATCTAGAATA [CACACA_site6654]” it is 7.67; for “TACATAAACATTTATACACACATTATGTATACATAT [CACACA_site405]” it is 7.13.

Regarding “GGATTTTTCGAATCATGTACATATTTAATTAAAAAA [XGTACX_site7939]”, the “gcPBM binding intensity (ln)” value is 6.9. For the sequence “TAGAATGTATGTAGTGCACACCTCTATAATATATTA [CACACA_site1873]”, the “gcPBM binding intensity (ln)” value came to 10.7. The figure for “AACTTTGGCAAACACACACACACACCCACACCCACA [CACACA_site588]” is 6.9. Consider “TTTTTTTTTTGCACGTGTACATAAAAATATATATAT [XGTACX_site3116]”, for which the “gcPBM binding intensity (ln)” value came to 8.08. Consider “AAAATATATTCAACTTGTACATATATATATATATAT [XGTACX_site7629]”, for which the “gcPBM binding intensity (ln)” value came out at 9.65. As to “TTTTTGTAATGACACACACACAAACAGAAAAAATAA [CACACA_site7062]”, the “gcPBM binding intensity (ln)” value is 7.19. “TTATATATTTTGATTGCACACAGAATTTAAATCATG [CACACA_site8735]”: the “gcPBM binding intensity (ln)” value stood at 7.26.

Regarding “ATATATGTGCTAAAATGTACATAGTATAATATATTT [XGTACX_site1949]”, the “gcPBM binding intensity (ln)” value stood at 7.05. For “TTTAATCATTTTAGCTTACACACAAAATTTTGTTAT [CACACA_site2938]”, the “gcPBM binding intensity (ln)” value worked out at 7.01.

For the sequence “ATAAAATAAAGGAAAAATATTAAGTTTTAAGAAAAT [CACACA_negctrl_site1066]”, the “gcPBM binding intensity (ln)” value stood at 6.68. In the case of “ATATTTAAGATTTAATCACACACATATATATTATAT [CACACA_site8946]” it was 7.14. As to “TAGATACATAAAAGTGGTACATATATATATATATAT [XGTACX_site6263]”, the “gcPBM binding intensity (ln)” value turned out to be 9.44. The figure for “AATATTTATATTTACACACACATAATACCTATATGT [CACACA_site6167]” is 7.02; for “TGGAAATTCTCAGGAGTGCATATTTGCAGTTTACGT [GTGCAC_site9768]” it is 9.28. The figure for “ATGGTTAAAAAAAGCATACACACTATCCTCTTTGCT [CACACA_site2552]” is 6.84; for “TTTGTTGACGGACACACACACATACAGATATATATA [CACACA_site5292]” it is 7.32. Take “ATAATAAATTATTATGTACACACATAATAGTATATA [CACACA_site8538]”: the “gcPBM binding intensity (ln)” value was found to be 6.98.

As to “CCGTTGAACATATATGCACACACATAAAATAAAAAA [CACACA_site8761]”, the “gcPBM binding intensity (ln)” value amounted to 7.65. With “ATATTTTTTTTTTTTTGTACATATATCATTATATAT [XGTACX_site866]”, the “gcPBM binding intensity (ln)” value was determined as 7.13. For the sequence “TTTTTGTCTGCATACGCACACACGTGTACCATCTTA [CACACA_site1173]”, the “gcPBM binding intensity (ln)” value was determined as 7.19. Regarding “TGGTTACTGTCATTAGTTATTTCTTGTTGACAATTA [CACACA_negctrl_site416]”, the “gcPBM binding intensity (ln)” value came out at 6.81. For the sequence “AAAAAATCACAACACACACACACACTAATAAAAAAA [CACACA_site8410]”, the “gcPBM binding intensity (ln)” value is 7.05.

For the origin of these results see the supplement of paper PMC11417369.
